From the RNAGym collection of RNA variant scans (doi:10.1073/pnas.2313332121)
This sample is rich in variants without activity.

B1: TPR 5TU (parent)
chain: GGAUCUUCUCGAUCUAACAAAAAAGACAAAUCUGCCACAAAGCUUGAGAGCAUCUUCGGAUGCAGAGGCGGCAGCCUUCGGUGGCGCGAUAGCGCCAACGUUCUCAACUAUGACACGCAAAACGCGUGCUCCGUUGAAUGGAGUUUAUCAUG

Variants of: B1
Test: polymerase ribozyme fitness, log enrichment relative to wild type (log ratio); higher = more active; in vitro selection for triplet polymerase activity
Outline: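 Genotype fitness is the logarithm of its enrichment divided by wild-type enrichment, using inverse-variance-weighted averages of replicates. That logarithm is base 2. Enrichment was measured by Illumina sequencing of input and output libraries from one triplicate in vitro selection round, with frozen incubation at −7 °C, on PCR-built, transcribed mutant libraries of each subunit of a heterodimeric triplet polymerase ribozyme, retaining genotypes with ≥10 input reads and ≥1 read per output.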

Polymerase ribozyme fitness (log ratio), -2.86:
A37C A49G C93U

Polymerase ribozyme fitness (log ratio), -4.19:
C36A G84U C114A A120U G143U
C36G G84A

Polymerase ribozyme fitness (log ratio), -1.34:
C36U C38U G83A A121U

Polymerase ribozyme fitness (log ratio), -4.18:
C36U C85U G133A U135C

Polymerase ribozyme fitness (log ratio), -2.23:
A37C A60C C85U G126C U146C

Polymerase ribozyme fitness (log ratio), -2.16:
C36U A142G

Polymerase ribozyme fitness (log ratio), ≤ -4.2:
C36A C51U U78C
C36A C57A C79G U82G
C36A C63U G71U C87G
C36A C75U G83A A89C C99G C105U C123A C125A
C36A C76G C99U A107C A142C
C36A C79A C99G U111C A122G A138G
C36A C85A A106G A122U C129A
C36A C85A A138U
C36A C87A C105G
C36A G46C U90C C95U
C36A G48C G86A
C36A G58A C72G G92U A115C A147G
C36A G62C C63U
C36A G84A G124C
C36A G88U A150G
C36A G92C C116A G124U
C36A U45A C87G A91G
C36A U45A G46U G50C A52G A91G A98U
C36A U45G C79G
C36A U55A A64U C96A C118G
C36A U55A A66U U144A
C36A U56A C57A A122G U127C
C36A U56G C85A
C36A U56G C87U G88A C99A U127G
C36A U56G G141U
C36A U78C G80U C149U
C36G A47G U55C G84U C149A
C36G A52C C116U U148A
C36G A52C U53A A73U C85U C131U
C36G C75G C95U C114G U135G A138G G140C
C36G C76U C87U A91C A97U U109C A142C
C36G C87G A91C A98U C114U A119U A122G
C36G C95A G133U
C36G G50A A89U
C36G G65A G83A A98C
C36G G70U C76U G84U C99U G141U
C36G G80A U101A A138G
C36G U44G A147C
C36G U55A U61A C76A C93U U135G
C36G U82A G84A U127C C129U G133C
C36U A39C U55A A73U C95A C96A G126C U130G
C36U A40U G68U A106C G140U
C36U A47G A91U C114A A119U U139A
C36U A60C C85A C125G U144G
C36U A64C G136A U145C A147C
C36U C43G G46C U144G
C36U C43U A52C G58A C76U C114U U135C
C36U C43U C75A C95A
C36U C51G U55A G67A C93U
C36U C54G A66C G84U C95A U101G
C36U C69G A73G C87A G100U G112C G141C
C36U C76A C93A G117A U146G
C36U C87G U145A
C36U G42A C76U G143A
C36U G50C C85A A110C
C36U G71A G94A U135G
C36U G92C C116U C118U U144C
C36U U44G C96G C99G C123U C125G U135C G141A
C36U U53A C57A C63A G71A U82A G86C A98G
C36U U55A G86U C96G C149G
C36U U55A U61A A66C G84C U145G
C36U U55G A73C G86U G94U A113C
C36U U90G A91C C93U G94U U134A
A37C A40C C69U C75A G88A G133A U139C A150C
A37C A40U G71C C93U C95A A113G
A37C A41U G46A C85A
A37C A47C G59U A107G G124U
A37C A47U G58A U61G A91G A107C A113G A138U
A37C A47U G71U G84U A115U
A37C A49C G59C G83C C95A A122U G143U A150G
A37C A64C G71A C85A G126C
A37C A64G C76A C95U C99A U101C C123A U130G C132U

Polymerase ribozyme fitness (log ratio), -3.23:
C36U G62A C72U

Polymerase ribozyme fitness (log ratio), -4.04:
C36U U134G U148A

Polymerase ribozyme fitness (log ratio), -4.17:
C36G U55G A73U C108U C118A G133U

Polymerase ribozyme fitness (log ratio), -3.52:
C36U G94A

Polymerase ribozyme fitness (log ratio), -3.76:
A37C A60C C69U C85A U146G
